Assay results from PubChem BioAssay AID1347120 (National Center for Advancing Translational Sciences (NCATS), 2019).
The campaign covered roughly 390,000 compounds. About 930 (0.24%) were called active. This list was built around the results that the source calls inconclusive (neither active nor inactive); the mix of calls is not that of the screen. Calls come from the whole dose curve; as a rule, active = well fitted activation curve with a large enough effect; inconclusive = small, poorly fitted or top-dose-only effect; inactive = no such curve, though single readings can be large or run the other way. A potency beside an inconclusive call is a rough fit, not a confirmed value.

test: qHTS for Suppressors of FUS Proteinopathy: Primary screen using FUS-linked yeast assay; note: nearly all actives have a fitted effect of over 55% in size;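 for growth rescue (activation): plate controls were DMSO vehicle for no effect and reference control for full effect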; conditions: S. cerevisiae FUS-expressing, OD600, 24 h; Potency: growth rescue; growth rescue (activation): at 76.6 µM (top of the series)
How it was run: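 Read-out: OD at 600 nm after 24hr at 30C, reporting rescue of FUS-induced yeast toxicity. Cells at OD 0.005 in galactose (2%) minimal medium; compounds tested in a dilution series; CP55940 titration from 92uM final as control.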
Potency is the fitted concentration of half-maximal effect; tags give direction and shape of the fitted curve.

Compound | Potency | growth rescue (activation)
CCC(C)NC(=O)C(Cc1ccccc1)NS(=O)(=O)c1cccc2nsnc12 (stereo not given) | inactive | –
CCCCN1CC(c2nc3ccccc3n2CCCCOc2c(C)cccc2C)CC1=O (stereo not given) | inconclusive: 35.5 µM [activator, partial curve, poor fit] | –
Nc1nnc(SCC(=O)Nc2ccc3c(c2)OCCO3)s1 | – | inconclusive: 56.1% [activator]
CC(Oc1ccc(Br)cc1)c1nc2c3ccccc3nc(=S)n2[nH]1 (stereo not given) | active: 35.5 µM | –
O=C(NCc1ccc(F)cc1)c1cccc2c1C(=O)c1ccc(N3CCC(Cc4ccccc4)CC3)cc1S2(=O)=O | inconclusive: 28.2 µM [activator, single point] | –
CCOC(=O)c1cnc2c(c(C)nn2C)c1Oc1ccc(Cl)cc1 | inconclusive: 50.1 µM [activator, single point] | –
CCOc1ccc(-n2c(SCC(=O)Nc3ccc(S(=O)(=O)Nc4nccs4)cc3)nnc2-c2ccncc2)cc1 | inconclusive: 17.8 µM [activator, partial curve] | –
Cc1ccc(S(=O)(=O)N2CCN(C(=O)COC(=O)/C=C/c3ccccc3[N+](=O)[O-])CC2)c(C)c1 | inconclusive: 50.1 µM [activator, single point] | –
Cc1ccc(C)c(NC(=O)C2CCCN(S(=O)(=O)c3c(C)noc3/C=C/N(C)C)C2)c1 (stereo not given) | inconclusive: 35.5 µM [activator, single point] | –
CCCCC1=CC2=C(c3ccco3)C(=O)C(C)(OC(=O)c3ccc(OC)cc3)C(=O)C2=CN1CC1CC1 (stereo not given) | active: 20 µM | –
O=C(CN1CCN(S(=O)(=O)c2ccc(F)cc2)CC1)Nc1ccc(F)cc1F | inactive | –
CC1(C(=O)Nc2cnc3ccccc3c2)CCN1Cc1cc2ccccc2o1 (stereo not given) | inactive | –
COc1ccc(-n2ncc3c(N4CCN(c5cccc(C)c5)C(C)C4)ncnc32)cc1 (stereo not given) | inactive | –
CCOC(=O)Cc1csc(NC(=O)c2ccncc2)n1 | inconclusive: 6.31 µM [activator, partial curve, poor fit] | –
O=C1CC(c2nc3ccccc3n2CCCCOc2ccccc2)CN1c1ccccc1Cl (stereo not given) | inconclusive: 31.6 µM [activator, single point] | –
c1ccc(-c2nc(N3CCCCCC3)c3ccccc3n2)nc1 | inactive | –
Cn1cnnc1SC/C(O)=C(\C#N)c1nc2ccccc2[nH]1 | inactive | –
COc1ccc(C2=CN(Cc3ccccc3)C(c3ccccc3)CC2=O)cc1 (stereo not given) | inconclusive: 50.1 µM [activator, single point] | –
COc1ccc(S[C@]2(C(=O)N3CCCC3)CC(=O)N(S(=O)(=O)c3ccc(F)cc3)[C@@H]2c2ccc(OC)cc2)cc1 | inconclusive: 20 µM [activator, partial curve, poor fit] | –
CCOC(=O)N1CCN(C(=O)C[C@@H]2C[C@@]3(C(=O)OC)CCCCC=C3N(CCC3=CCCCC3)C2=O)CC1 | inconclusive: 31.6 µM [activator, single point] | –

Compound | Potency | growth rescue (activation)
COc1ccc(C(=O)/C=C/c2ccc(N(C)C)cc2)c(OC)c1 | inconclusive: 2.24 µM [activator, full curve, poor fit] | –
COc1cc(C(=O)NCCCCc2ccccc2)cc(OC)c1OC | inconclusive: 6.31 µM [activator, single point] | –
O=C(NCCc1ccccc1)c1ccc2c(c1)N(Cc1ccccc1Cl)C(=O)c1ccccc1S2 | inconclusive: 12.6 µM [activator, partial curve] | –
CN1C(=O)/C(=N\OC(=O)c2ccccc2Cl)c2ccccc21 | inactive | –
COc1ccc(CC(=O)Nc2nc3c(s2)CC(C(C)(C)C)CC3)cc1 (stereo not given) | inconclusive: 22.4 µM [activator, single point] | –
Cc1cccc(C(=O)N2CCN=C2SCc2ccc([N+](=O)[O-])cc2)c1 | inactive | –
CCOC1(c2ccccc2)OC(=O)c2ccccc21 (stereo not given) | inactive | –
CCOC(=O)c1ccc(NC(=O)CN(c2ccc(C)cc2)S(=O)(=O)c2c(C)noc2C)cc1 | inconclusive: 20 µM [activator, single point] | –
Cc1cccc(NC(=O)Cn2c(=O)n(-c3ccccc3Cl)c(=O)c3c(C)c(C(=O)N(C)C)sc32)c1 | inconclusive: 35.5 µM [activator, single point] | –
Cc1cc(C)cc(N2CC(c3nc(-c4ccccc4C)no3)CC2=O)c1 (stereo not given) | inconclusive: 25.1 µM [activator, partial curve, poor fit] | –
C=CCNC(=S)NNc1nc(Nc2ccccc2)nc(N2CCCCC2)n1 | inconclusive: 35.5 µM [activator, partial curve, poor fit] | –
CC(=O)c1cccc(NC(=O)CC2S/C(=N/N=C3CCCCCC3)NC2=O)c1 (stereo not given) | inconclusive: 39.8 µM [activator, partial curve, poor fit] | –
COc1ccc(C2c3cc(OC)c(OC)cc3CC3C(=O)OCC32)cc1OC (stereo not given) | inconclusive: 6.31 µM [activator, full curve] | –
O=C(NCc1ccccc1Br)c1ccc2nc(N3CCCCC3)sc2c1 | inactive | –
CCN(CC)S(=O)(=O)c1ccc(OC)c(NC(=O)C(C)Oc2ccc3c(C)cc(=O)oc3c2)c1 (stereo not given) | inconclusive: 22.4 µM [activator, partial curve, poor fit] | –
COc1cccc(NC(=O)C2CCN(S(=O)(=O)c3ccc4c(c3)NC(=O)C(C)S4)CC2)c1 (stereo not given) | inconclusive: 28.2 µM [activator, single point] | –
CCc1ccc(NC(=O)Cc2cn(C)c3ccccc23)cc1 | inconclusive: 50.1 µM [activator, single point] | –
O=c1c2ccccc2[nH]c2ccc(O)cc12 | inconclusive: 50.1 µM [activator, single point] | –
COC(=O)[C@]12C[C@H](CC(=O)NCc3ccc(OC)c(OC)c3)C(=O)N(Cc3cccc4ccccc34)C1=C[C@H](COCc1ccccc1)O[C@@H]2C | inconclusive: 17.8 µM [activator, partial curve] | –
COc1ccc(COC[C@H](C)N2C[C@@H](C)[C@H](CN(C)S(=O)(=O)c3ccc(F)cc3)OCCCC[C@H](C)Oc3ccc(NC(=O)Nc4ccccc4)cc3C2=O)cc1 | inconclusive: 12.6 µM [activator, partial curve, poor fit] | –
